Reference: publication PMC3672086, “TWEAK-Independent Fn14 Self-Association and NF-κB Activation Is Mediated by the C-Terminal Region of the Fn14 Cytoplasmic Domain” (PLoS ONE, 2013)

Experiments:
[1] = molecular target: the molecule itself; test: SDS-PAGE under non-reducing conditions with Western blot; lysates of three cancer cell lines with endogenous Fn14; no DTT, not heated; anti-Fn14 (CST) blot
[2] = molecular target: the molecule itself; test: cross-linking; cell surface proteins of transfected HEK293/NF-κB-luc/Fn14-HA cells cross-linked with 1 mM BS3 in PBS, 20 min, room temperature; lysis in HNTG buffer, reducing SDS-PAGE, anti-myc Western blot
[3] = molecular target: the molecule itself; test: SDS-PAGE under non-reducing conditions with Western blot; HNTG lysates of transfected HEK293 cells; no DTT in loading buffer, sample not heated; anti-myc blot; shows disulfide-linked dimers formed during lysis

B1: endogenously expressed Fn14 (receptor)
chain: not shown
notes: human Fn14; 129-aa precursor cleaved by signal peptidase into the mature 102-aa protein; also called endogenous Fn14; source: endogenous, lysates of three cancer cell lines (A375 named in the text)
stoichiometry N [1]: 2

B2: myc epitope-tagged full-length, wild-type human Fn14 (Fn14-FL) (receptor)
chain: not shown
notes: The signal peptide is cut off in the cell; the mature protein starts with the myc tag; also called Fn14-WT; Fn14-FL-myc; source: HEK293 or HEK293/NF-κB-luc/Fn14-HA cells, transiently transfected (pcDNA6/Fn14-FL), on cells or in lysate; not shown: myc, N-terminal, kept
stoichiometry N [2]: 2

B3: myc-tagged Fn14 with C104S substitution (receptor)
chain: not shown
notes: also called Fn[…]S; source: HEK293 cells, transiently transfected (pcDNA6), in lysate; not shown: myc, N-terminal, kept
stoichiometry N [3]: 2
